{
  "source": "paper PMC4336329",
  "about": "(PLoS ONE, 2015)",
  "note": "The campaign covered roughly 310,000 compounds. About 2,200 (0.71%) showed an effect of 50% or more. Effects have a minus sign here. The list shows a part of the results.",
  "data": [
    {"target": "human ether-à-go-go-related gene (hERG) potassium channel (human, UniProt Q12809)", "sequence (Q12809 whole entry, looked up)": "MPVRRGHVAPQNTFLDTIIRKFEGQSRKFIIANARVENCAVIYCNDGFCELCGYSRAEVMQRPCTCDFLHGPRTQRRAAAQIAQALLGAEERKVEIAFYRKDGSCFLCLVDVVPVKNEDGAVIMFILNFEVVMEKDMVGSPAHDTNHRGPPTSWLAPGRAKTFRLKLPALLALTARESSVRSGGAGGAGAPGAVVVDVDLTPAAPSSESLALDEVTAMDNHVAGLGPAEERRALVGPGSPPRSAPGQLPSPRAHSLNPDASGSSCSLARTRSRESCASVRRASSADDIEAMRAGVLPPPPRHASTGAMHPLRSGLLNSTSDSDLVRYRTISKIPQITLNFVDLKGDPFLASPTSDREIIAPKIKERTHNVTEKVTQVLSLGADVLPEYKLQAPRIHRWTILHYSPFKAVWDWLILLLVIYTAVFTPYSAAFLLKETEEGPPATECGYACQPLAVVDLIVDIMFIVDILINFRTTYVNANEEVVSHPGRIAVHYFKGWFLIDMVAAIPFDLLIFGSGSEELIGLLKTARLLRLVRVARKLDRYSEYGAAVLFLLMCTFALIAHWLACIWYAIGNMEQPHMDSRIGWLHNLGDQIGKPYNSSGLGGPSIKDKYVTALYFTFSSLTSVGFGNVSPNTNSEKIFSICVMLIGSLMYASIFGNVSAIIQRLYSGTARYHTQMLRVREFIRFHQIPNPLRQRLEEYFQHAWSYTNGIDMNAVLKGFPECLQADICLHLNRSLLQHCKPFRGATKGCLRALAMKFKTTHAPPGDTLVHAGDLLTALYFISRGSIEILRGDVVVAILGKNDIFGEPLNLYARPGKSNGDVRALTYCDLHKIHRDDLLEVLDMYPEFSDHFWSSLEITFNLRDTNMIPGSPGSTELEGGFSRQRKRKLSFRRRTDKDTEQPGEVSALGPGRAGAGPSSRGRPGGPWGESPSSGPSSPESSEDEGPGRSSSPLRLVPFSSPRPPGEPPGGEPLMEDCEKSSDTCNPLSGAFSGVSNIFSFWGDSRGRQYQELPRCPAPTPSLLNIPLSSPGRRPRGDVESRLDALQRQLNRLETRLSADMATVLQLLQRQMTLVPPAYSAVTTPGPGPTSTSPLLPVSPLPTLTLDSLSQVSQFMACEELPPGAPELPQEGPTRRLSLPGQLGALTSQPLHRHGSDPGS", "assay": "primary screen, population patch clamp on CHO cells stably expressing hERG", "units": {"hERG current change (%, negative = inhibition) at 1uM": "%"}, "values": [
      {"smiles": "CCc1cc(C(=O)O)c(NC(=O)C(c2ccccc2)c2ccccc2)s1", "hERG current change (%, negative = inhibition) at 1uM": 16.6},
      {"smiles": "COC(=O)c1ccc(C2NC(=O)CCC2[N+](=O)[O-])cc1", "note": "(stereo not drawn)", "hERG current change (%, negative = inhibition) at 1uM": 13.7},
      {"smiles": "COCCCC1CCN(Cc2nc(Cc3ccccc3Cl)no2)CC1", "hERG current change (%, negative = inhibition) at 1uM": 2.53},
      {"smiles": "COc1ccccc1-c1nnc(NC(=O)c2ccc(S(=O)(=O)N3CCCC3)cc2)o1", "hERG current change (%, negative = inhibition) at 1uM": -23.2},
      {"smiles": "S=C(NCC1CCCCC1)Nc1ccc(Oc2ccccc2)cc1", "hERG current change (%, negative = inhibition) at 1uM": 6.68},
      {"smiles": "O=C(CN1CCN(CC(=O)Nc2ccccc2Cc2ccccc2)CC1)Nc1ccccc1Cl", "hERG current change (%, negative = inhibition) at 1uM": 17.1},
      {"smiles": "CC(C)NC(=O)c1onc(CSc2ccc(C(C)C)cc2)c1C(=O)O", "hERG current change (%, negative = inhibition) at 1uM": 13.1},
      {"smiles": "COc1ccc(CCNC(=O)c2cccc3c2C(=O)N(C2CCCCC2)C3)cc1OC", "hERG current change (%, negative = inhibition) at 1uM": 6.77},
      {"smiles": "Cc1ccnc(NS(=O)(=O)c2ccc(NC(=O)c3ccc4c(c3)OCCO4)cc2)n1", "hERG current change (%, negative = inhibition) at 1uM": 16.6},
      {"smiles": "CCOC(=O)N1CCN(C(=O)C(=O)Nc2sc3c(c2C(=O)O)CC(C)(C)OC3)CC1", "hERG current change (%, negative = inhibition) at 1uM": 15.3},
      {"smiles": "Cl.NCC(O)c1ccc(O)cc1", "note": "(stereo not drawn)", "hERG current change (%, negative = inhibition) at 1uM": 3.92},
      {"smiles": "Cc1ccc(NC(=O)CNc2ccc(OC(C)C)cc2)c(C)c1", "hERG current change (%, negative = inhibition) at 1uM": 6.16},
      {"smiles": "NC(=O)CCC1NC(=S)N(Cc2ccccc2)C1=O", "note": "(stereo not drawn)", "hERG current change (%, negative = inhibition) at 1uM": 10.4},
      {"smiles": "CCOC(=O)c1c(NC(=O)Cn2c(=O)oc3ccccc32)oc(C)c1C(C)=O", "hERG current change (%, negative = inhibition) at 1uM": 13.3},
      {"smiles": "Cc1cccc(-n2c(C)nc3cc(C(=O)N4CCOCC4)ccc32)c1", "hERG current change (%, negative = inhibition) at 1uM": 13.3},
      {"smiles": "O=C1NC(=Nc2ccccc2Cl)S/C1=C\\c1cc([N+](=O)[O-])ccc1O", "hERG current change (%, negative = inhibition) at 1uM": 2.26},
      {"smiles": "COc1ccccc1NC(=O)CN(Cc1ccco1)C(=O)c1cc2ccccc2o1", "hERG current change (%, negative = inhibition) at 1uM": 0.0983},
      {"smiles": "Cc1nc2cc(C(=O)O)ccc2n1-c1ccc(F)cc1F", "hERG current change (%, negative = inhibition) at 1uM": 2.5},
      {"smiles": "CC(=O)Nc1cccc(Oc2ccc(-c3noc(C)n3)cc2)c1", "hERG current change (%, negative = inhibition) at 1uM": 6.33},
      {"smiles": "CN(C)CCc1nn[nH]n1", "hERG current change (%, negative = inhibition) at 1uM": -3.43},
      {"smiles": "O=S(=O)(c1ccc(Oc2ccc(F)c(Cl)c2)nc1)N1CCOCC1", "hERG current change (%, negative = inhibition) at 1uM": 3.7},
      {"smiles": "Cc1cccc(NC(=O)CN2C(=O)NC(C)(c3ccc4c(c3)OCO4)C2=O)c1", "note": "(stereo not drawn)", "hERG current change (%, negative = inhibition) at 1uM": -16.4},
      {"smiles": "CN(C(=O)c1nn(C)c2c1CSc1ccccc1-2)c1ccc(F)cc1", "hERG current change (%, negative = inhibition) at 1uM": 10.2},
      {"smiles": "Cc1sc(NC(=O)CCC(=O)O)c(C(N)=O)c1-c1ccccc1", "hERG current change (%, negative = inhibition) at 1uM": 7.1},
      {"smiles": "Cc1ccc(/C=N/NC(=O)Cc2cccs2)o1", "hERG current change (%, negative = inhibition) at 1uM": 9.02},
      {"smiles": "N#CCc1nc(CSc2nc3ccccc3s2)cs1", "hERG current change (%, negative = inhibition) at 1uM": 11.8},
      {"smiles": "COc1ccc(NC2=C3CC(C)CC=C3N(c3ccc(OC)cc3)C2=O)cc1", "note": "(stereo not drawn)", "hERG current change (%, negative = inhibition) at 1uM": 4.39},
      {"smiles": "CCN(CC)C(=O)CSc1nc2cc(S(=O)(=O)N3CCOCC3)ccc2n1CC", "hERG current change (%, negative = inhibition) at 1uM": 12.4},
      {"smiles": "N#C/C(=C\\c1cccnc1)c1ccc([N+](=O)[O-])cc1", "hERG current change (%, negative = inhibition) at 1uM": -9.76},
      {"smiles": "S=C(Nc1cccnc1)Nc1ccccc1Br", "hERG current change (%, negative = inhibition) at 1uM": -8.83},
      {"smiles": "COc1ccc(/C=C(/NC(C)=O)C(=O)O)cc1", "hERG current change (%, negative = inhibition) at 1uM": 13.5},
      {"smiles": "CCOC(=O)N1CCC(NC(=O)CCS(=O)(=O)c2ccc3c(c2)CCN3C(C)=O)CC1", "hERG current change (%, negative = inhibition) at 1uM": 6.95},
      {"smiles": "O=C1CCc2cc(S(=O)(=O)NC(Cc3ccccc3)C(=O)N3CCN(c4ccccn4)CC3)ccc2N1", "note": "(stereo not drawn)", "hERG current change (%, negative = inhibition) at 1uM": -21.8},
      {"smiles": "Cc1ccc(C(=O)Nc2nnc(COc3ccccc3)s2)cc1", "hERG current change (%, negative = inhibition) at 1uM": 6.33},
      {"smiles": "NC(=O)Cn1cc(C(=O)c2cccs2)c2ccccc21", "hERG current change (%, negative = inhibition) at 1uM": 6.32},
      {"smiles": "CNc1c(NS(=O)(=O)c2ccc3c(c2)CCCC3)c(=O)oc2ccccc12", "hERG current change (%, negative = inhibition) at 1uM": 15.4},
      {"smiles": "O=c1[nH]c(=O)n(CCc2ccccc2)c(O)c1/C=N/N1CCOCC1", "hERG current change (%, negative = inhibition) at 1uM": 15.2},
      {"smiles": "O=C(OCc1nc2ccccc2[nH]1)C1CCCCC1", "hERG current change (%, negative = inhibition) at 1uM": 5.67},
      {"smiles": "CCOC(=O)C1(Cc2ccccc2C(F)(F)F)CCN(CCCn2cccn2)CC1", "hERG current change (%, negative = inhibition) at 1uM": -49.2},
      {"smiles": "CCN1CCN(c2ccc(N=Cc3ccc(O)cc3O)cc2)CC1", "hERG current change (%, negative = inhibition) at 1uM": 11.5},
      {"smiles": "COc1ccc(C(C(=O)NC2CCCC2)N(C(=O)c2snc(-c3ccc(F)cc3)c2N)c2ccc(OC)cc2)cc1", "note": "(stereo not drawn)", "hERG current change (%, negative = inhibition) at 1uM": -2.68},
      {"smiles": "Cc1ccc2nc(C)cc(C(=O)OCC(=O)Nc3cccnc3Cl)c2c1", "hERG current change (%, negative = inhibition) at 1uM": -4.13},
      {"smiles": "CCCCC(=O)Nc1ccc2oc(-c3ccncc3)nc2c1", "hERG current change (%, negative = inhibition) at 1uM": 5.73},
      {"smiles": "COc1ccc2c(c1)c(=O)c(C(=O)c1ccc(C)cc1)cn2CC(=O)Nc1ccc(F)cc1", "hERG current change (%, negative = inhibition) at 1uM": 6.23},
      {"smiles": "CC(C(=O)c1ccccc1)n1cnc2ccccc2c1=O", "note": "(stereo not drawn)", "hERG current change (%, negative = inhibition) at 1uM": 9.56},
      {"smiles": "C/C(=N\\NC(=O)c1nnn(-c2nonc2N)c1-c1ccc2c(c1)OCO2)c1ccc(C)cc1", "hERG current change (%, negative = inhibition) at 1uM": 15.3},
      {"smiles": "O=C(O)c1ccc2c(=O)n3c(nc2c1)/C(=C/c1ccccc1C(F)(F)F)CCCC3", "hERG current change (%, negative = inhibition) at 1uM": 7.81},
      {"smiles": "O=C(CN1C(=O)c2ccccc2C1=O)NCCc1c[nH]c2ccc(Cl)cc12", "hERG current change (%, negative = inhibition) at 1uM": 0.521},
      {"smiles": "CCNC(=O)c1cnn(-c2ccccc2)c1-c1ccccc1", "hERG current change (%, negative = inhibition) at 1uM": 13.5},
      {"smiles": "Cc1ccccc1NC(=O)c1cnn(-c2ccccc2)c1C", "hERG current change (%, negative = inhibition) at 1uM": 13.5},
      {"smiles": "COc1ccc(S(=O)(=O)N2CCCCC2)cc1N(C)S(=O)(=O)c1ccccc1", "hERG current change (%, negative = inhibition) at 1uM": 12.7},
      {"smiles": "COc1ccc(OC)c(CNC(=O)CCn2nc(C)c3c(C)n(-c4ccccc4)nc3c2=O)c1", "hERG current change (%, negative = inhibition) at 1uM": 8.53},
      {"smiles": "Nc1ccc2sc(N)nc2c1", "hERG current change (%, negative = inhibition) at 1uM": 15.6},
      {"smiles": "Cc1cc(O)c(Sc2ccccc2)c(=O)o1", "hERG current change (%, negative = inhibition) at 1uM": 10.8},
      {"smiles": "CCC(C)N1C(=O)S/C(=C/c2ccc(Sc3nc4ccccc4[nH]3)o2)C1=O", "note": "(stereo not drawn)", "hERG current change (%, negative = inhibition) at 1uM": 15.2},
      {"smiles": "Cc1ccc(CNC(N)=S)cc1", "hERG current change (%, negative = inhibition) at 1uM": 12},
      {"smiles": "CCCCCCCCc1nc(=S)[nH][nH]1", "hERG current change (%, negative = inhibition) at 1uM": 16}
    ]}
  ]
}
